Source: US11395857B2, “Radiolabeled melanocortin 1 receptor-specific alpha-melanocyte-stimulating hormone analogues for imaging or therapy” (PROVINCIAL HEALTH SERVICES AUTHORITY, priority 2018, dated 2022)
Where two headings read alike, the source gives them in different places. Part of at least one peptide drawing is inferred or uncertain, most often the ends.

What was measured:
[1] = system: B16F10 mouse melanoma; assay: Biodistribution of 68Ga-labeled peptide in mice bearing B16F10 mouse melanoma; format: in vivo, C57BL/6J mice; conditions: 1 h p.i., co-injection of 0.5 mg BMS 470539
Procedure: The B16-F10 melanoma cell line (Mus musculus) used in the tumor model was obtained commercially from ATTC (CRL-6475). Cells were cultured in Dulbecco's Modified Eagle's Medium (DMEM, StemCell Technologies) supplemented by 10% FBS, 100 U/mL penicillin and 100 μg/mL streptomycin at 37° C. in a humidified incubator containing 5% CO2. Cells grown to roughly 90% confluence were washed with sterile phosphate-buffered saline (lx PBS, pH 7.4), followed by trypsinization. For tumour implantation, C57BL/6J mice were anesthetized by inhalation with 2% isoflurane in 2.0 L/min of oxygen, 2×10^6 B16-F10 cells were inoculated subcutaneously on right dorsal flank. […]
Similar to PET/CT imaging, tumour-bearing mice were injected with 1-2 MBq of ^68Ga-labeled CCZ01099 via tail vein under anesthesia with or without co-injection of 0.5 mg of MC1R-specific inhibitor BMS 470539. […] Each organ was then weighed and the radioactivity of the collected tissue was measured using a Wallac WIZARD2 gamma counter (Perkin Elmer), normalized to the injected dose using a standard curve and expressed as the percentage of the injected dose per gram of tissue (% ID/g). […] Minimal background tissue radioactivity accumulation was observed, except for kidney, which is expected as the radiolabeled peptides were cleared through the renal pathway.

[2] = system: B16F10 cells; assay: In vitro competition binding assay on B16-F10 cells vs 125I-[Nle4,D-Phe7]-alpha-MSH; design: species or system Mus musculus; conditions: n ≥ 3, read-out: Inhibition constants (Ki) on B16F10 cells
Procedure: The B16-F10 melanoma cell line (Mus musculus) used in the tumor model was obtained commercially from ATTC (CRL-6475). Cells were cultured in Dulbecco's Modified Eagle's Medium (DMEM, StemCell Technologies) supplemented by 10% FBS, 100 U/mL penicillin and 100 μg/mL streptomycin at 37° C. in a humidified incubator containing 5% CO2. Cells grown to roughly 90% confluence were washed with sterile phosphate-buffered saline (lx PBS, pH 7.4), followed by trypsinization. For tumour implantation, C57BL/6J mice were anesthetized by inhalation with 2% isoflurane in 2.0 L/min of oxygen, 2×10^6 B16-F10 cells were inoculated subcutaneously on right dorsal flank. Mice were imaged or used in biodistribution studies once the tumour reached 6-8 mm in diameter.
In vitro competitive binding assays were performed using B16-F10 cells and the cell culture method described in Example 1. 500,000 cells/well were seeded onto a 24 well poly-D-lysine coated plate (Corning) overnight. Growth media was removed, and reaction buffer containing 4.8 mg/mL HEPES, […] penicillin/[…] and 2 mg/mL BSA was added, and allowed to incubate with cells at 37° C. for at least an hour. Peptide of interest and ^125I-[Nle^4, D-Phe^7]-alpha-MSH (Perkin Elmer) were added to each well. The binding of ^125I-[Nle^4, D-Phe^7]-alpha-MSH was competed by non-radioactive gallium coupled CCZ01103, CCZ01104, CCZ01105, CCZ01106 or CCZ01114 at increasing concentrations from 0.5 pmol/mL to […]. The reaction mixture was incubated at 25° C. with moderate shaking for 1 h. After the incubation, the reaction mixture was removed, and cells were washed with ice-cold PBS twice. 0.25% Trypsin solution was used to harvest the cells and radioactivity was measured using a Wallac WIZARD2 gamma counter (Perkin Elmer).

[3] = system: SK-MEL-1 human melanoma; assay: Radioligand therapy of SK-MEL-1 human melanoma-bearing mice; format: in vivo, NRG mice; conditions: for Median survival: SK-MEL-1 tumour-bearing NRG mice, single injection; for Growth of the SK-MEL-1 human melanoma: vs saline control group
Procedure: For radioligand therapy, SK-MEL-1 human melanoma-bearing mice were injected with saline (control group, n=5), non-radioactive lutetium coupled CCZ01158 (cold std, n=4), and [^177Lu]Lu-CCZ01158 (26.7±3.6 MBq/mouse, n=4). Tumour size and body weight were measured every 2-4 days from the date of injection. Endpoint was defined as >15% weight loss, ulceration of tumours, or tumour volume >1000 mm^3 (Volume=width×width×length/2, measured with calliper). […] This confirms the effectiveness of the ^177Lu radiotherapy with CCZ01158 as the melanoma targeting molecule. […] All mice were euthanized when the tumours reached over 1000 mm^3, except for one mouse due to weight loss in the saline group, and one mouse due to tumour ulceration in the cold std group.

[4] = listed as non-radioactive lutetium coupled CCZ01158

Row | SMILES | Ki ([2]; natLu-conjugated peptides) | Ki ([2]; natGa-coupled peptides) | also measured
1 | CCCC[C@H](NC(=O)CN1CCC(NC(=O)CN2CCN(CC(=O)O)CCN(CC(=O)O)CCN(CC(=O)O)CC2)CC1)C(=O)N[C@H]1CC(=O)NCCCC[C@@H](C(N)=O)N(C)C(=O)[C@H](Cc2c[nH]c3ccccc23)N(C)C(=O)[C@H](CCCNC(=N)N)N(C)C(=O)[C@@H](Cc2ccccc2)NC(=O)[C@H](Cc2c[nH]cn2)N(C)C1=O [^68Ga-labeled CCZ01099, metal not drawn] | – | – | Reduction of tumour uptake with the MC1R inhibitor [1]: 89%
2 | CCCC[C@H](NC(=O)CN1CCC(NC(=O)[C@H](CCCCNC(=O)CN2CCN(CC(=O)O)CCN(CC(=O)O)CCN(CC(=O)O)CC2)NC(=O)[C@H](CCC(=O)O)NC(=O)CCCc2ccc(I)cc2)CC1)C(=O)N[C@H]1CC(=O)NCCCC[C@@H](C(N)=O)N(C)C(=O)[C@H](Cc2c[nH]c3ccccc23)N(C)C(=O)[C@H](CCCNC(=N)N)N(C)C(=O)[C@@H](Cc2ccccc2)NC(=O)[C@H](Cc2c[nH]cn2)N(C)C1=O [^177Lu-labeled CCZ01088, metal not drawn] | 26.9 ± 6.2 nM | – | –
3 | CCCC[C@H](NC(=O)CN1CCC(NC(=O)CN2CCN(CC(=O)O)CCN(CC(=O)O)CCN(CC(=O)O)CC2)CC1)C(=O)N[C@H]1CC(=O)NCCCC[C@@H](C(N)=O)NC(=O)[C@H](Cc2c[nH]c3ccccc23)NC(=O)[C@H](CCCNC(=N)N)NC(=O)[C@@H](Cc2ccccc2)NC(=O)[C@H](Cc2c[nH]cn2)NC1=O [^177Lu-labeled CCZ01048, metal not drawn, reference compound] | 0.21 ± 0.03 nM | – | –
4 | CCCC[C@H](NC(=O)CN1CCC(NC(=O)[C@H](CCCCNC(=O)CN2CCN(CC(=O)O)CCN(CC(=O)O)CCN(CC(=O)O)CC2)NC(=O)[C@H](CCC(=O)O)NC(=O)CCCc2ccc(I)cc2)CC1)C(=O)N[C@H]1CC(=O)NCCCC[C@@H](C(N)=O)N(C)C(=O)[C@H](Cc2c[nH]c3ccccc23)NC(=O)[C@H](CCCNC(=N)N)N(C)C(=O)[C@@H](Cc2ccccc2)NC(=O)[C@H](Cc2c[nH]cn2)NC1=O [^177Lu-labeled CCZ01118, metal not drawn] | 1.42 ± 0.12 nM | – | –
5 | CCCC[C@H](NC(=O)CN1CCC(NC(=O)CN2CCN(CC(=O)O)CCN(CC(=O)O)CCN(CC(=O)O)CC2)CC1)C(=O)N[C@H]1CC(=O)NCCCC[C@@H](C(N)=O)N(C)C(=O)[C@H](Cc2c[nH]c3ccccc23)N(C)C(=O)[C@H](CCCNC(=N)N)N(C)C(=O)[C@@H](Cc2ccccc2)NC(=O)[C@H](Cc2c[nH]cn2)NC1=O [^natGa-CCZ01103, metal not drawn] | – | 16 ± 1.5 nM | –
6 | CCCC[C@H](NC(=O)CN1CCC(NC(=O)[C@H](CCCCNC(=O)CN2CCN(CC(=O)O)CCN(CC(=O)O)CCN(CC(=O)O)CC2)NC(=O)[C@H](CCC(=O)O)NC(=O)CCCc2ccc(I)cc2)CC1)C(=O)N[C@H]1CC(=O)NCCCC[C@@H](C(N)=O)NC(=O)[C@H](Cc2c[nH]c3ccccc23)NC(=O)[C@H](CCCNC(=N)N)NC(=O)[C@@H](Cc2ccccc2)NC(=O)[C@H](Cc2c[nH]cn2)NC1=O [^177Lu-labeled CCZ01082, metal not drawn] | 0.41 ± 0.02 nM | – | –
7 | CCCC[C@H](NC(=O)CN1CCC(NC(=O)CN2CCN(CC(=O)O)CCN(CC(=O)O)CCN(CC(=O)O)CC2)CC1)C(=O)N[C@H]1CC(=O)NCCCC[C@@H](C(N)=O)N(C)C(=O)[C@H](Cc2c[nH]c3ccccc23)N(C)C(=O)[C@H](CCCNC(=N)N)NC(=O)[C@@H](Cc2ccccc2)NC(=O)[C@H](Cc2c[nH]cn2)NC1=O [^natGa-CCZ01105, metal not drawn] | – | 31 ± 3.8 nM | –
8 | CCCC[C@H](NC(=O)CN1CCC(NC(=O)CN2CCN(CC(=O)O)CCN(CC(=O)O)CCN(CC(=O)O)CC2)CC1)C(=O)N[C@H]1CC(=O)NCCCC[C@@H](C(N)=O)NC(=O)[C@H](Cc2c[nH]c3ccccc23)N(C)C(=O)[C@H](CCCNC(=N)N)N(C)C(=O)[C@@H](Cc2ccccc2)NC(=O)[C@H](Cc2c[nH]cn2)NC1=O [^natGa-CCZ01104, metal not drawn] | – | 35.9 ± 3.2 nM | –
9 | CCCC[C@H](NC(=O)CN1CCC(NC(=O)[C@H](CCCCNC(=O)CN2CCN(CC(=O)O)CCN(CC(=O)O)CCN(CC(=O)O)CC2)NC(=O)CNC(=O)CCCc2ccc(-c3ccc(C)cc3)cc2)CC1)C(=O)N[C@H]1CC(=O)NCCCC[C@@H](C(N)=O)N(C)C(=O)[C@H](Cc2c[nH]c3ccccc23)NC(=O)[C@H](CCCNC(=N)N)N(C)C(=O)[C@@H](Cc2ccccc2)NC(=O)[C@H](Cc2c[nH]cn2)NC1=O [^natLu-CCZ01158, metal not drawn] | – | – | Median survival [3]: 14 days; Median survival [3, 4]: 14 days; Growth of the SK-MEL-1 human melanoma [3, 4]: no significant difference
10 | CCCC[C@H](NC(=O)CN1CCC(NC(=O)CN2CCN(CC(=O)O)CCN(CC(=O)O)CCN(CC(=O)O)CC2)CC1)C(=O)N[C@H]1CC(=O)NCCCC[C@@H](C(N)=O)NC(=O)[C@H](Cc2c[nH]c3ccccc23)NC(=O)[C@H](CCCNC(=N)N)N(C)C(=O)[C@@H](Cc2ccccc2)NC(=O)[C@H](Cc2c[nH]cn2)NC1=O [^natGa-CCZ01114, metal not drawn] | – | 1.5 ± 0.1 nM | –
11 | CCCC[C@H](NC(=O)CN1CCC(NC(=O)CN2CCN(CC(=O)O)CCN(CC(=O)O)CCN(CC(=O)O)CC2)CC1)C(=O)N[C@H]1CC(=O)NCCCC[C@@H](C(N)=O)N(C)C(=O)[C@H](Cc2c[nH]c3ccccc23)NC(=O)[C@H](CCCNC(=N)N)N(C)C(=O)[C@@H](Cc2ccccc2)NC(=O)[C@H](Cc2c[nH]cn2)NC1=O [^natGa-CCZ01106, metal not drawn] | – | 1.5 ± 0.1 nM | –
12 | CCCC[C@H](NC(=O)CN1CCC(NC(=O)CN2CCN(CC(=O)O)CCN(CC(=O)O)CCN(CC(=O)O)CC2)CC1)C(=O)N[C@H]1CC(=O)NCCCC[C@@H](C(N)=O)N(C)C(=O)[C@H](Cc2c[nH]c3ccccc23)NC(=O)[C@H](CCCNC(=N)N)N(C)C(=O)[C@@H](Cc2ccccc2)NC(=O)[C@H](Cc2c[nH]cn2)NC1=O [^177Lu-labeled CCZ01106, metal not drawn] | 2.15 ± 0.1 nM | – | –
13 | CCCC[C@H](NC(=O)CN1CCC(NC(=O)[C@H](CCCCNC(=O)CN2CCN(CC(=O)O)CCN(CC(=O)O)CCN(CC(=O)O)CC2)NC(=O)CNC(=O)CCCc2ccc(-c3ccc(C)cc3)cc2)CC1)C(=O)N[C@H]1CC(=O)NCCCC[C@@H](C(N)=O)N(C)C(=O)[C@H](Cc2c[nH]c3ccccc23)NC(=O)[C@H](CCCNC(=N)N)N(C)C(=O)[C@@H](Cc2ccccc2)NC(=O)[C@H](Cc2c[nH]cn2)NC1=O [^177Lu-labeled CCZ01158, metal not drawn] | – | – | Median survival ([3]; listed as [^177Lu]Lu-CCZ01158): 29 days; Growth of the SK-MEL-1 human melanoma ([3]; listed as [^177Lu]Lu-CCZ01158): significantly delayed
14 | CCCC[C@H](NC(=O)CN1CCC(NC(=O)CN2CCN(CC(=O)O)CCN(CC(=O)O)CCN(CC(=O)O)CC2)CC1)C(=O)N[C@H]1CC(=O)NCCCC[C@@H](C(N)=O)N(C)C(=O)[C@H](Cc2c[nH]c3ccccc23)N(C)C(=O)[C@H](CCCNC(=N)N)N(C)C(=O)[C@@H](Cc2ccccc2)NC(=O)[C@H](Cc2c[nH]cn2)N(C)C1=O [^177Lu-labeled CCZ01099, metal not drawn] | 19 ± 1.5 nM | – | –
